Experimental data reported in US20240209061A1 (Pfizer, published 2024).

What was measured:
[1] = target: T1, recombinant soluble mouse CTLA-4 (mouse, UniProt P09793 36-161, limits assumed); assay: SPR (Biacore 8K+, 37 C), CTLA-4 immobilised, CD80-Fc as analyte; bivalent apparent KD ± SE
Description: (§1) Binding affinity of CD80-Fc fusion proteins against recombinant soluble CD28 and CTLA-4 proteins was determined by surface plasmon resonance (SPR) using a Biacore 8K+ instrument at 37° C. (physiologic temperature) with a collection rate of 10 Hz. Purified soluble ligands were covalently coupled onto a CM5 sensor chip using an Amine coupling Kit (GE Healthcare, Product #BR100050) following the manufacturer's recommendations. Three-fold serial dilutions of the CD80-Fc fusion protein analytes in HBS-EP+ running buffer (10 mM HEPES pH 7.4, 0.15 M NaCl, 3 mM EDTA, 0.05% P-20), ranging in concentration from 900 nM to 11.1 nM, were injected for 55 sec over the directly immobilized ligands at a flow rate of 50 μLs/min. The flow was again returned to running buffer and dissociation was monitored for 300 sec.

[2] = target: T2, recombinant soluble human CTLA-4 (human, UniProt P16410 36-161); assay: as above
Description: as §1

[3] = target: T3, recombinant soluble rat CTLA-4 (rat, UniProt Q62859 36-161); assay: as above
Description: as §1

[4] = target: T4, CD28 expressed on Jurkat T cell line / human T cells (human, UniProt P10747 19-220); assay: cell-based or functional assay
[5] = target: T4, CD28 expressed on Jurkat T cell line / …; assay: cell-based or functional assay; remark: listed apart in the source
[6] = target: T4, CD28 expressed on Jurkat T cell line / …; assay: flow cytometry on Jurkat cells, PE anti-human Fc detection
Description: Binding affinity of CD80-Fc fusion proteins (WT and variant) against CD28 expressed on Jurkat T cell line (ATCC TIB-152) was measured by flow cytometry. Jurkat cells (100,000 cells suspended in 100 μL PBS supplemented with 0.5% BSA, 2 mM EDTA, and 10% normal goat serum) were incubated with CD80-Fc fusion proteins at concentrations ranging 0.025-500 nM on ice for 30 minutes. Cells were then washed with PBS supplemented with 0.5% BSA and 2 mM EDTA twice. […] Afterward, cells were washed with PBS supplemented with 0.5% BSA and 2 mM EDTA twice. Finally, cells were suspended in PBS containing 0.5 μg/mL 7-amino-actinomycin D and acquired on BD LSRFortessa X-20 flow cytometer. Data were analyzed by Flowjo v10 software (Flowjo, LLC). FIG. 3 and Table 1 show the binding affinity of CD80-Fc fusion proteins (WT and variants) against CD28 expressed on Jurkat cells.

insulin [7] = target: T5, insulin; assay: insulin-binding ELISA (non-specific binding)
T5 construct: Polyspecificity reagent
Description: (§2) Variant CD80-Fc fusion proteins were assessed by measuring non-specific binding using a DNA- and insulin-binding ELISA (Avery et al., MAbs. 2018 February/March; 10(2): 244-255) and for self-interaction in an AC-SINS assay (affinity-capture self-interaction nanoparticle spectroscopy; Liu et al., 2014, mAbs 6:483-92). DNA- and insulin-binding scores were calculated as the signal ratio of the ELISA signal of the CD80-Fc fusion protein at 10 μg/ml to the ELISA signal in the absence of the Fc-fusion protein (buffer only). For the AC-SINS assay, proteins are captured by anti-human Fc antibodies coated on gold nanoparticles. […] The score ranges obtained from these in vitro assays correlate well with in vivo clearance using huFcRn transgenic (Tg32) mouse. Therapeutic proteins with high scores are at high risk for rapid clearance and unfavorable PK and therapeutics that score low are at low risk and favorable PK.

[8] = target: T4, CD28 expressed on Jurkat T cell line / …; assay: cell-based or functional assay; remark: listed apart in the source
human PD-L1 [9] = target: T6, human PD-L1 (human, UniProt Q9NZQ7 partial chain, limits assumed); assay: SPR (Biacore), human PD-L1 immobilised, CD80-Fc as analyte
T6 construct: also called immobilized human PD-L1

[10] = target: T7, recombinant soluble mouse CD28 (mouse, UniProt P31041 20-150, limits assumed); assay: SPR (Biacore 8K+, 37 C), CD28 immobilised, CD80-Fc as analyte; bivalent apparent KD ± SE
Description: as §1

[11] = target: T8, recombinant soluble rat CD28 (rat, UniProt P31042 20-150, limits assumed); assay: as above
Description: as §1

[12] = target: T9, recombinant soluble human CD28 (human, UniProt P10747 19-152); assay: as above
T9 construct: Called only 'recombinant soluble'; also called soluble CD28
Description: as §1

[13] = target: T4, CD28 expressed on Jurkat T cell line / …; assay: cell-based or functional assay; remark: listed apart in the source
insulin [14] = target: T5, insulin; assay: insulin-binding ELISA (non-specific binding); remark: listed apart in the source
Description: as §2

[15] = target: T1, recombinant soluble mouse CTLA-4; assay: SPR (Biacore 8K+, 37 C), CTLA-4 immobilised, CD80-Fc as analyte; bivalent apparent KD ± SE; remark: listed apart in the source
Description: as §1

[16] = target: T2, recombinant soluble human CTLA-4; assay: as above; remark: listed apart in the source
Description: as §1

[17] = target: T3, recombinant soluble rat CTLA-4; assay: as above; remark: listed apart in the source
Description: as §1

[18] = target: T4, CD28 expressed on Jurkat T cell line / …; assay: cell-based or functional assay; remark: listed apart in the source
[19] = target: T4, CD28 expressed on Jurkat T cell line / …; assay: cell-based or functional assay; remark: listed apart in the source
[20] = target: T7, recombinant soluble mouse CD28; assay: SPR (Biacore 8K+, 37 C), CD28 immobilised, CD80-Fc as analyte; bivalent apparent KD ± SE; remark: listed apart in the source
Description: as §1

[21] = target: T8, recombinant soluble rat CD28; assay: as above; remark: listed apart in the source
Description: as §1

[22] = target: T9, recombinant soluble human CD28; assay: as above; remark: listed apart in the source
Description: as §1

[23] = target: T4, CD28 expressed on Jurkat T cell line / …; assay: cell-based or functional assay; remark: listed apart in the source
human PD-L1 [24] = target: T6, human PD-L1; assay: SPR (Biacore): human PD-L1 immobilised at 60 ug/ml on the chip, CD80-Fc injected at 11.1-900 nM
[25] = target: T9, recombinant soluble human CD28; assay: SPR (Biacore 8K+, 37 C), human CD28 immobilised
Description: as §1

T3 sequence (Q62859 entry or part of it limits assumed): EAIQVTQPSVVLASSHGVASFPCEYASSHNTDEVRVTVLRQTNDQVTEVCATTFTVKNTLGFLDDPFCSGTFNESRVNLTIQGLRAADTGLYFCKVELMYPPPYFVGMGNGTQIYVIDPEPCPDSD
T7 sequence (P31041 20-150 limits assumed): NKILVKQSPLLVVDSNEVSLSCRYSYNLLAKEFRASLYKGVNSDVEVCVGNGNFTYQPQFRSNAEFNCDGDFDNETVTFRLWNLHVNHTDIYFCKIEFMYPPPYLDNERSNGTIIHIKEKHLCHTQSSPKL
T1 sequence (P09793 36-161 limits assumed): as the sequence (Q62859 entry or part of it limits assumed) above, with A26S, S27P, V46M, V56E, L60V, D65Y, A87V, F93L counted along it
T5 sequence (P01308 25-54, chain 1 of 2): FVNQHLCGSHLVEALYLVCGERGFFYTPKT
T5 sequence (P01308 90-110, chain 2 of 2): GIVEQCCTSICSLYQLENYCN
T2 sequence (P16410 36-161 limits assumed): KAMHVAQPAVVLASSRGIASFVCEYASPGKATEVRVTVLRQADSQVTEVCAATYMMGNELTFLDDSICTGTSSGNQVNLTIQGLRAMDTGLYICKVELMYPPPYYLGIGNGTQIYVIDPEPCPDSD
T8 sequence (P31042 20-150 limits assumed): as the sequence (P31041 20-150 limits assumed) above, with S15N, S62P, A64V, E65G, D71N, H85D, F98V, R109K, T125A, S127T counted along it
T6 sequence (Q9NZQ7 19-238 limits assumed): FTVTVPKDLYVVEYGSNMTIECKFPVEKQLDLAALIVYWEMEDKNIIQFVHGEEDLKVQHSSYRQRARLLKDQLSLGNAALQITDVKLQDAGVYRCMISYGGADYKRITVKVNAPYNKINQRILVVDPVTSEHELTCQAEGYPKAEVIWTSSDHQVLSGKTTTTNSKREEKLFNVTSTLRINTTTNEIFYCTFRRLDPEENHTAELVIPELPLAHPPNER

Binder	Kd [1]	Kd [2]	Kd [3]	IL-2 EC50, human PBMC assay with plate-bound anti-CD3 (average of 5 donors) [5]	Insulin Score (insulin [7])	Kd [10]	Kd [11]	Kd [12]	Insulin Score (insulin [14])	Kd [15]	Kd [16]	Kd [17]	IL-2 EC50, human PBMC assay, donor 379, anti-CD3 1 ug/ml [18]	Kd [20]	Kd [21]	Kd [22]	Fold-increase over background (CD3 stimulation alone), Jurkat IL-2 reporter assay [23]	further results
CD80-WT-Fc (Fc fusion, also called WT CD80-Fc; wild-type CD80-Fc fusion protein) VIHVTKEVKEVATLSCGHNVSVEELAQTRIYWQKEKKMVLTMMSGDMNIWPEYKNRTIFDITNNLSIVILALRPSDEGTYECVVLKYEKDAFKREHLAEVTLSVKADFPTPSISDFEIPTSNIRRIICSTSGGFPEPHLSWLENGEELNAINTTVSQDPETELYAVSSKLDFNMTTNHSFMCLIKYGHLRVNQTFNWNTTKQEHFPDN[sequence of human IgG1 Fc with C220S (EU numbers) omitted]	132 nM	96.1 nM	50.4 nM	23.6 nM	1 ratio of ELISA signal at 10 µg/ml to buffer only	1150 nM	823 nM	2310 nM	1 ratio of ELISA signal at 10 µg/ml to buffer only	126 nM	108 nM	62.6 nM	41 nM	1370 nM	827 nM	1690 nM	3.6 fold	EC50, IL-2 release, primary T cell and HCT116-CD64 co-culture [4]: 114 ng/mL and 1.15 nM; Kd [6]: 162 nM; EC50, luciferase reporter, Jurkat-NYESO1-IL-2-Luc and A375-CD64 co-culture [8]: 38.9 ng/mL and 0.394 nM; Kd (human PD-L1 [9]): > 1000 nM; EC50, luciferase reporter, Jurkat-IL-2-Luc and HCT116-CD64 co-culture [13]: 82.5 ng/mL and 0.836 nM; IL-2 EC50, human PBMC assay, donor 418, anti-CD3 0.3 ug/ml [18]: 6.24 nM; EC50, luciferase reporter, Jurkat-CTLA-4-IL-2-Luc and HCT116-CD64 co-culture [19]: 1.4 nM
CD80-K89D-D90K-T28V-T57V-Fc (Fc fusion, Non-cysteine stabilized variant) VIHVTKEVKEVATLSCGHNVSVEELAQVRIYWQKEKKMVLTMMSGDMNIWPEYKNRVIFDITNNLSIVILALRPSDEGTYECVVLKYEDKAFKREHLAEVTLSVKADFPTPSISDFEIPTSNIRRIICSTSGGFPEPHLSWLENGEELNAINTTVSQDPETELYAVSSKLDFNMTTNHSFMCLIKYGHLRVNQTFNWNTTKQEHFPDN[sequence of human IgG1 Fc with C220S (EU numbers) omitted]	–	–	–	–	1 ratio of ELISA signal at 10 µg/ml to buffer only	–	–	–	–	212 nM	115 nM	126 nM	3.52 nM	478 nM	375 nM	92.4 nM	7.75 fold	binding result (human PD-L1 [24]): no binding (tested: 900 nM); fold increase of affinity over WT CD80-Fc fusion protein [25]: 18 fold
CD80-K89Q-D90Q-E23C-A26C-Fc (Fc fusion, Disulfide stabilized variant; also called CD80-Fc K89Q-D90Q-E23C-A26C) VIHVTKEVKEVATLSCGHNVSVCELCQTRIYWQKEKKMVLTMMSGDMNIWPEYKNRTIFDITNNLSIVILALRPSDEGTYECVVLKYEQQAFKREHLAEVTLSVKADFPTPSISDFEIPTSNIRRIICSTSGGFPEPHLSWLENGEELNAINTTVSQDPETELYAVSSKLDFNMTTNHSFMCLIKYGHLRVNQTFNWNTTKQEHFPDN[sequence of human IgG1 Fc with C220S (EU numbers) omitted]	407 nM	291 nM	205 nM	11.5 nM	–	955 nM	856 nM	1100 nM	1 ratio of ELISA signal at 10 µg/ml to buffer only	–	–	–	–	–	–	–	6 fold	–

Where “and” joins values, the source holds several entries; their conditions need not be identical. Identical values can stand only once. Like-named read-outs stand apart in the source and are kept apart here.
